Measurements published in PMC12040169 (PLOS Biology, 2025).
The list shows a part of the results.

tested on: T1, C. trachomatis L2/434/Bu expressing GFP (CTL2-GFP); parameters: species or system HeLa; C. trachomatis total inclusion area by high-content imaging, normalised to DMSO; conditions: total inclusion area; 28.5 h, 10 µM; inhibitor
T1 construct: L2/434/Bu GFP intracellular growth in HeLa cells
Summary of the method: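 Imaging read-out: GFP inclusions and Hoechst nuclei captured by high-content imaging after fixation. Inclusion area/number = chlamydial growth; nuclei count = host cell viability. MIC calculated per earlier method.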

| Compound | % of control remaining |
| --- | --- |
| Cn1cc(CNCC2CCN(CCO)CC2)c(-c2cccnc2)n1 [CBK305153] | 73.9927 |
| Cc1nnc(N/N=C\c2ccco2)n1N [CBK028824C] | 57.935 |
| CC(Oc1cccc(C#N)c1)C(=O)NCC1(N2CCOCC2)CCSC1 (stereo not drawn) [CBK305780] | 27.5298 |
| Cc1cc(NC(=O)CN2CCN(Cc3ccc(Cl)nc3)CC2)no1 [CBK305504] | 39.2424 |
| O=C1NC2(CCNCC2)Oc2ccc(-c3cccc4ncccc34)cc21 [CBK083775T] | 93.9412 |
| COCCN(C(=O)c1nc2cccnc2s1)C1CCS(=O)(=O)C1 (stereo not drawn) [CBK304091] | 46.8345 |
| CN(C)C(=O)c1cn2cc(-c3cccs3)n(CC3CC3)c(=O)c2n1 [CBK307440] | 97.6238 |
| C=CCN(C)C(=O)[C@H]1C[C@@H](O)[C@H](O)[C@@H]2N=C(Nc3ccc(Cl)cc3)S[C@@H]21 [CBK288946] | 120.424 |
| CCC(=O)NC(=S)Nc1ccc(C(=O)N2CCCC2)cc1 [CBK288464] | 97.9713 |
| Cc1nn(C)c(C)c1NC(=O)CN1CCN(c2ccccc2Cl)CC1 [CBK306058] | 70.9351 |
| O=C(NC(=O)C1CCN(CC2COc3ccccc3O2)CC1)Nc1ccccc1 (stereo not drawn) [CBK035267] | 108.682 |
| Cc1ccc(Cc2nc(-c3cccnc3)no2)cc1 [CBK288141] | 40.2906 |
| C[C@@H]1CN(C(=O)c2n[nH]c3ccccc23)C[C@H](C)O1 [CBK200232] | 101.61 |
| Cc1nn(-c2ccccc2)c2[nH]c(=O)c(CNC3CCC3)cc12 [CBK282897] | 83.2033 |
| O=C(CSc1cccc2ccccc12)Nc1ccc([N+](=O)[O-])cc1O [CBK268696] | 72.0852 |
| Cc1ccc(-c2cc(C(=O)NCC3(C)COC3)no2)cc1 [CBK281744] | 90.7337 |
| Cc1nc(N2CCN(Cc3ccc4c(c3)OCO4)CC2)c2c(C)c(C)sc2n1 [CBK266739] | 92.2292 |
| Cc1cccc(C(=O)Nc2nnc(C3=COCCO3)o2)c1 [CBK287406] | 95.4113 |
| COc1cc(C(=O)Nc2ccccc2C(=O)N2CCN(C)CC2)cc(OC)c1OC [CBK269803] | 104.495 |
| COc1cc(CNC(=O)N(CCc2ccccc2)Cc2ccccc2)cc(OC)c1OC [CBK155329] | 45.0406 |
| Cc1cc(NC(=O)COc2ccc(Cl)cc2)nc2c1c(=O)oc1ccccc12 [CBK291230] | 132.808 |

| Compound | % of control remaining |
| --- | --- |
| CCc1cc(NCCc2ccc(=O)[nH]c2)nc(-c2ccc(Br)cc2)n1 [CBK144610C] | 88.9379 |
| O=C(NCCc1ccccn1)N1CCCN(Cc2cccs2)CC1 [CBK305283] | 86.3946 |
| Cc1cc2cc(NC(=O)CCc3c(C)n[nH]c3C)ccc2o1 [CBK283077] | 102.318 |
| CC(C)Nc1nc(C#N)nc(NC(C)C)n1 [CBK027421] | 72.4548 |
| COCc1nnc(Sc2cc(N3CCCC3)ncn2)s1 [CBK093746] | 104.814 |
| O=C(CCCn1ccnc1)NC(Cc1ccsc1)c1cccnc1 (stereo not drawn) [CBK285158] | 89.7788 |
| COc1ccccc1-c1cc2nc(C)cc(Nc3ccccc3)n2n1 [CBK287806] | 82.8335 |
| CCOC(=O)c1nnsc1Sc1ccc(C)cc1 [CBK018867] | 55.4792 |
| CN(C)c1cccc(OCCn2ccnc(N3CCNCC3)c2=O)c1 [CBK013866F] | 114.213 |
| COc1ccccc1OCC(=O)N1CCN(C(=O)c2ccco2)CC1 [CBK144466] | 114.551 |
| Cc1cc(C)c2c(c1)cc(C)c1nn(CC(=O)N3CCCC3)c(=O)n12 [CBK283876] | 94.0042 |
| O=C(O)c1ccc(CN2C(=O)c3ccc(C(=O)c4ccc(C(=O)O)cc4)cc3C2=O)cc1 [CBK262831] | 109.408 |
| CN1CCN(Cc2c(C(C)(C)C)[nH]c3ncccc23)CC1 [CBK285334] | 91.5981 |
| CCC(NC(=O)C(c1cccs1)c1cccs1)c1ccc(F)cc1 (stereo not drawn) [CBK286339] | 101.509 |
| COc1ccc(CCNC(=O)N2CCCCC2CO)cc1 (stereo not drawn) [CBK156188] | 97.7843 |
| Cc1nccn1CCNC(=O)CC1C(=O)N(C)c2ccccc21 (stereo not drawn) [CBK281977] | 83.5085 |
| O=C(CC1NC(=O)NC1=O)Nc1ccc(C(=O)O)cc1 (stereo not drawn) [CBK267355] | 112.433 |
| CC(C)(C)OC(=O)N1CCN(C(=O)N[C@@H](Cc2ccccc2)C(=O)O)CC1 [CBK286785] | 110.535 |
| CCN(CC)CC1CCCN(C(=O)Cn2ccc3ccc(F)cc32)C1 (stereo not drawn) [CBK282146] | 87.3401 |
| COc1ccc(C(=O)C2=C(O)C(=O)N(CCN(C)C)C2c2ccncc2)c(C)c1 (stereo not drawn) [CBK264867] | 115.669 |
| Cc1cc(C)n2ncc(C(=O)NCC(c3cccs3)N3CCCC3)c2n1 (stereo not drawn) [CBK305675] | 81.3396 |

| Compound | % of control remaining |
| --- | --- |
| CC(C)CNC(=O)c1cc([C@H]2CC[C@H](CNC(=O)c3cnn(C)c3)CC2)nc2ccccc12 [CBK285867] | 80.7474 |
| Fc1ccc(Oc2nccnc2N2CCN(Cc3cccnc3)CC2)cc1 [CBK083011] | 74.9562 |
| CN(CC(=O)O)S(=O)(=O)c1cccc2cccc(Cl)c12 [CBK268433] | 95.4192 |
| CN(c1cc(F)ccc1[N+](=O)[O-])S(C)(=O)=O [CBK001365] | 93.5518 |
| c1ccc(CCN2CCC(c3nc(-c4ccccc4)no3)CC2)cc1 [CBK051454] | 83.7104 |
| CC(=O)Nc1ccc(NC(=O)CSCC(=O)O)cc1 [CBK226269] | 86.11 |
| N#Cc1ccc(CNC(=O)N2CCc3ccccc3C2)cc1 [CBK155287] | 110.122 |
| Cc1c(NCc2ccc3c(c2)n(C)c(=O)n3C)cccc1C(=O)O [CBK287237] | 103.274 |
| COCCOCN1C(=O)CC2(C1=O)C(=O)N(Cc1ccc(OC(F)(F)F)cc1)c1ccccc12 (stereo not drawn) [CBK075942] | 115.873 |
| CC(=O)O/C(N)=N/c1nonc1N [CBK021885] | 56.0635 |
| COc1ccc(CN[C@H]2[C@H](O)[C@@H](N3CCCC3)[C@@H]3OC[C@H]2O3)cc1 [CBK288827] | 120.13 |
| COc1cc(CNCc2ccco2)ccc1OCC(N)=O [CBK270204C] | 107.571 |
| Cn1nc(-c2ccc(S(=O)(=O)Nc3ccc4cn[nH]c4c3)s2)cc1C(F)(F)F [CBK067156] | 92.536 |
| CCCC/C=C/c1cn2ccnc2c(N2CCN(c3ccccn3)CC2)n1 [CBK066224] | 120.599 |
| Cc1nc(S(=O)(=O)Nc2ccc3[nH]ccc3c2)cn1C [CBK156800] | 89.1895 |
| O=C(O)C1CCCN(C(=O)Cn2ccc3ccc(OCc4ccccc4)cc32)C1 (stereo not drawn) [CBK286814] | 103.711 |
| Cc1cc(C)c2oc(-c3ccc(Cl)c(NC(=O)Cc4ccc(Cl)cc4)c3)nc2c1 [CBK264695] | 100.239 |
| COc1ccc(C(C)C)cc1-c1cnc(N)c(Nc2ccc3[nH]ccc3c2)n1 [CBK063827] | 164.283 |
| COc1nccnc1OC1CCN(CC(N)=O)CC1 [CBK084248] | 95.4608 |
| OCC1CCCN1c1cc(Cl)nc2ccnn12 (stereo not drawn) [CBK037011] | 62.7579 |
| CC(=O)NCC(=O)N(c1ccccc1)C1(C(=O)NC(c2ccccc2)c2ccccc2)CCCC1 [CBK100884] | 106.152 |

| Compound | % of control remaining |
| --- | --- |
| O=S(=O)(NCc1nc2ccccc2[nH]1)c1ccc(Cl)c(Cl)c1 [CBK261137] | 93.2672 |
| CC(CCc1ccc(F)cc1)NC(=O)c1cc2c([nH]c1=O)CCC2 (stereo not drawn) [CBK281512] | 82.5999 |
| COc1cc(/C=C2\SC(=N)NC2=O)ccc1OCC(=O)O [CBK262675] | 100.407 |
| CN(C)CCN1C(=O)C(O)=C(C(=O)c2cccs2)C1c1ccc([N+](=O)[O-])cc1 (stereo not drawn) [CBK264584] | 109.17 |
| CCN(CC(=O)NCc1ccc(F)cc1)S(=O)(=O)c1ccc(Cl)s1 [CBK305837] | 57.431 |
| CC(Cc1nc(C2CC2)cs1)n1cc(Cl)cn1 (stereo not drawn) [CBK304707] | 52.5512 |
| O=C(CSc1ccccc1)Nc1cccc(Oc2ccc3c(c2)C(=O)NC3=O)c1 [CBK266500] | 109.623 |
| C[C@@H]1CNCCN1c1nccnc1OCCOc1cccnc1OCCN [CBK040757T] | 91.1956 |
| CC(C)[C@H]1SC(NC[C@H](C)c2ccccc2)=NC1=O [CBK074034] | 36.1211 |
| CN(C)CCN(C)c1cccc(-c2ccc(CCC(=O)O)cc2)n1 [CBK036983] | 128.089 |
| CC(C)n1cc(C(=O)N2CCCC2c2nc3ccccc3[nH]2)cn1 (stereo not drawn) [CBK284667] | 106.505 |
| O=c1[nH]nc(-c2cccs2)n1-c1cccnc1 [CBK283854] | 51.4031 |
| CN(C)CCNC(=O)c1ccc(-c2cnc(OCC3CCN(C(=O)OC(C)(C)C)CC3)nc2)cc1 [CBK167544] | 114.907 |
| O=c1c2c(nc(NCCO)n1-c1ccccc1)-c1ccccc1CC21CCCCC1 [CBK262589] | 102.084 |
| CC1=CC(=O)OC1(O)c1ccc(Br)cc1 (stereo not drawn) [CBK022687] | 83.6241 |
| Cc1nn(CC(=O)N2CCCC(C)C2)c(=O)c2cc3sccc3n12 (stereo not drawn) [CBK284046] | 84.0261 |
| Cc1ccnc2c1C(=O)C1(CC2)CCN(S(=O)(=O)c2c(C)noc2C)CC1 [CBK059557T] | 70.7341 |
| COc1cc(NS(=O)(=O)c2ccc(NC(=O)c3ccc(C)o3)cc2)nc(OC)n1 [CBK268182] | 96.0964 |
